Experimental findings from patent US20100173845A1, “USE OF FERTIRELIN AND DELTA-ENDORPHIN AS THERAPEUTIC AGENTS” (priority 2007, published 2010) are described below.

Where a SMILES comes first, the peptide text is derived from it. Where no end group is shown, it is not given here. [ ]: non-standard residue; d: D form. pGlu = O=C1CC[C@@H](C(=O)O)N1

For this experiment, the system named is HIV-1IIIB. Put plainly: HIV-1 antiviral assay (cytopathic effect, MTS staining). The following applies: for antiviral activity of positive control compounds: HIV-1 infected CEM-SS cells; for reduction of cytopathic effect (CPE) in HIV-1 infected CEM-SS cells: 10 micrograms per ml, 6 days post-infection, MTS. Background: Cytopathic effects are the visible damage that an infection or toxin causes in cultured cells.

`CC(C)(C)NC(=O)[C@@H]1CN(Cc2cccnc2)CCN1C[C@@H](O)C[C@@H](Cc1ccccc1)C(=O)N[C@H]1c2ccccc2C[C@H]1O` [indinavir, reference compound]: the “antiviral activity of positive control compounds” value was “expected levels of antiviral activity”.
The same measure, in the same setting: next, `Cc1cn([C@H]2C[C@H](N=[N+]=[N-])[C@@H](CO)O2)c(=O)[nH]c1=O` [AZT, zidovudine, reference compound]: “expected levels of antiviral activity”.
Turning to YGGFMTSEKSQTPLVTLFKNAIIKNAY [Peptide 2], the “reduction of cytopathic effect (CPE) in HIV-1 infected CEM-SS cells” value was found to be 29.6%.
On the same count and under the same terms, next, `CCNC(=O)[C@@H]1CCCN1C(=O)[C@H](CCCNC(=N)N)NC(=O)[C@H](CC(C)C)NC(=O)CNC(=O)[C@H](Cc1ccc(O)cc1)NC(=O)[C@H](CO)NC(=O)[C@H](Cc1c[nH]c2ccccc12)NC(=O)[C@H](Cc1c[nH]cn1)NC(=O)[C@@H]1CCC(=O)N1` [Peptide 1] ([pGlu]HWSYGLRP-NHEt): 50.4%.
